Experimental data: patent US9890133B2 (priority 2011, dated 2018)

These compounds were tested on Coxsackie B3 (assay: Multicycle CPE reduction assay, Coxsackie B3). Conditions: Enterovirus B, incubation at 37° C. in Vero cells.
Description: The test compounds were evaluated for anti-picornavirus activity by a multicycle cytopathic effect (CPE) reduction assay. The antiviral activity was initially determined using an MTS [3-(4,5-dimethylthiazol-2-yl)-5-(3-carboxymethoxyphenyl)-2-(4-sulfophenyl-2H-tetrazolium]-based CPE reduction assay.
In this regard, cells grown to confluence in 96-well plates were infected with 100 50% cell culture infective doses (CCID50) of virus. After an adsorption period of 2 hrs at 37° C., virus was removed and serial dilutions of the compounds were added. […] After removal of the medium, 90 μl of a culture medium and 10 μl of MTS-phenazine methosulfate (Promega, Leiden, The Netherlands) were added to each well. After an incubation period of 2 hrs at 37° C., the optical density (OD) of each well was read at 498 nm in a microplate reader.
CPE values for evaluating antiviral activity were calculated using the following Mathematic Formula 3: […]
The 50% effective concentration (EC50) and the 50% cytotoxic concentration (CC50) were defined as the concentrations of compound that offered 50% protection against virus-induced CPE and that killed cells by 50%, respectively, and were calculated using logarithmic interpolation.
CC(C)c1ccc2c(c1)OC1(O)c3ccccc3C(=O)C21O (stereo not drawn) [Example 10, 4b,9b-Dihydroxy-7-isopropyl-4bH-benzo[d]indeno[1,2-b]furan-10(9bH)-one] showed an EC50 of 21 ± 7.2 nM. For CC(C)c1ccc2c(c1)O[C@@]1(O)c3cccc(N)c3C(=O)[C@@]21O [Example 46, 1-Amino-4b,9b-dihydroxy-7-isopropyl-4bH-benzo[d]indeno[1,2-b]furan-10(9bH)-one], the EC50 was 2.6 ± 1.2 nM. CC(=O)NC12C(=O)c3ccccc3C1(O)Oc1cc(C(C)C)ccc12 (stereo not drawn) [Example 66, N-(4b-Hydroxy-7-isopropyl-10-oxo-4b,10-dihydro-5-oxa-indeno[2,1-a]inden-9b-yl)-acetamide] was tested, and the EC50 was 3.3 ± 1.3 nM.
